According to PMC5700166:
The list shows a part of the results, in another mix than the full data. The list includes weakly bound sequences.

The sequences below were run against T1, GST-Co-NF-kB (UniProt F1ARL5) (assay: protein-binding microarray (PBM)). Settings: PBM: ~300 nM protein, 6 mM HEPES pH 7.8, 80 mM KCl, 0.5 mM EDTA, 0.5 mM EGTA, 6% glycerol, 35 ng/ul poly-dIdC, 1% milk, 1 h, room temperature; high values mean tight binding; double strand, one strand shown.
T1 sequence: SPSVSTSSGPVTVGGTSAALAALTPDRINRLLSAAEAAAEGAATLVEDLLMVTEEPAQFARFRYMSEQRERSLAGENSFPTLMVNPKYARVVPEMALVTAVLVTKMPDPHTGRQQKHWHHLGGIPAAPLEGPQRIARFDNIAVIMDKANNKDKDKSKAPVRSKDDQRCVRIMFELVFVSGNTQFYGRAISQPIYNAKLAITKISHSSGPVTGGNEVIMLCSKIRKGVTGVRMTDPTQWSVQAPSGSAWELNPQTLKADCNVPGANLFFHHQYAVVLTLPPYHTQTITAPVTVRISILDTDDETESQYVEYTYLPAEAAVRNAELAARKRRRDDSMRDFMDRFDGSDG
With “CCGATTAACATCAAAAAAACACCTGATGTTAATCGGGTCTTGATTCGCTTGACGCTGCTG” the binding signal was 0.723 z-score. In the case of “CCGATTAACATCAGGGGGTTATATGATGTTAATCGGGTCTTGATTCGCTTGACGCTGCTG”, the binding signal was 3.18 z-score. Work on “CCGATTAACATCAGGGGCTTTACTGATGTTAATCGGGTCTTGATTCGCTTGACGCTGCTG” yielded a binding signal of 0.497 z-score.

These sequences were tested against T2, GST-Dm-Relish (UniProt Q94527) (assay: protein-binding microarray (PBM)). Settings: PBM: ~300 nM protein, 6 mM HEPES pH 7.8, 80 mM KCl, 0.5 mM EDTA, 0.5 mM EGTA, 6% glycerol, 35 ng/ul poly-dIdC, 1% milk, 1 h, room temperature; Ap Aiptasia and Nv Nematostella (sea anemones) / Co Capsaspora / Aq Amphimedon (sponge) / Dm Drosophila / Hu human; RHD is the Rel homology domain; high values mean tight binding; most listed sequences are background and not binding sites; double strand, one strand shown.
T2 sequence: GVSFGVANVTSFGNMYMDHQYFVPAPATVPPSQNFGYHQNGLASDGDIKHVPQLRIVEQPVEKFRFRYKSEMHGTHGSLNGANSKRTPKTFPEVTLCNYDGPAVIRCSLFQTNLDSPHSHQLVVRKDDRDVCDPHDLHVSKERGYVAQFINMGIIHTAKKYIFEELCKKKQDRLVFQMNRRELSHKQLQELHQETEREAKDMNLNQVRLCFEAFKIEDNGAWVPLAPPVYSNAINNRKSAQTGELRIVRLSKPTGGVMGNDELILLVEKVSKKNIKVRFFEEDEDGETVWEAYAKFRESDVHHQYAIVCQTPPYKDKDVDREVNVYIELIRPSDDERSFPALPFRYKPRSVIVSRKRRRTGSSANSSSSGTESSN
For “CCGATTAACATCAGGGGAGACAATGATGTTAATCGGGTCTTGATTCGCTTGACGCTGCTG”, the binding signal was 0.429 z-score. For “CCGATTAACATCAGGGAATCCCATGATGTTAATCGGGTCTTGATTCGCTTGACGCTGCTG”, the binding signal was 10.4 z-score. With “CCGATTAACATCAGGGGGTGGAATGATGTTAATCGGGTCTTGATTCGCTTGACGCTGCTG” the binding signal was 2.66 z-score. “CCGATTAACATCAGGGGGTTCACTGATGTTAATCGGGTCTTGATTCGCTTGACGCTGCTG” was tested, and the binding signal was 10.4 z-score. “CCGATTAACATCATCCCGGGAAATGATGTTAATCGGGTCTTGATTCGCTTGACGCTGCTG” was tested, and the binding signal was 0.637 z-score. “CCGATTAACATCACGTTTTCCCCTGATGTTAATCGGGTCTTGATTCGCTTGACGCTGCTG” showed a binding signal of 4.49 z-score. “CCGATTAACATCATTTTGGGGACTGATGTTAATCGGGTCTTGATTCGCTTGACGCTGCTG” gave a binding signal of 1.4 z-score. “CCGATTAACATCACGGATTTCCCTGATGTTAATCGGGTCTTGATTCGCTTGACGCTGCTG” was tested, and the binding signal was 5.3 z-score. “CCGATTAACATCAGGGAACCCCATGATGTTAATCGGGTCTTGATTCGCTTGACGCTGCTG” gave a binding signal of 10.5 z-score. Sequence “CCGATTAACATCAGGGAAGTACCTGATGTTAATCGGGTCTTGATTCGCTTGACGCTGCTG” has a binding signal of 9.88 z-score. Work on “CCGATTAACATCAGGGGAACCACTGATGTTAATCGGGTCTTGATTCGCTTGACGCTGCTG” yielded a binding signal of 10.4 z-score. “CCGATTAACATCAGCACGGGAAATGATGTTAATCGGGTCTTGATTCGCTTGACGCTGCTG” gave a binding signal of 0.327 z-score.
